This note sets out measurements from PMC9911399, “Two distinct binding modes provide the RNA-binding protein RbFox with extraordinary sequence specificity”.

Changes are numbered by the printed parent chain; changes in the protein carry UniProt numbers. The list shows a part of the results.

T1: RBFOX1 RRM (Homo sapiens, UniProt Q9NWB1 109-208)
T1 sequence: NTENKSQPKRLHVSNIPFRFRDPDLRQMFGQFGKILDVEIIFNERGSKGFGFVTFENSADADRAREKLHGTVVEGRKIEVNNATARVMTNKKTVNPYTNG

B1: UUAGACC (DNA:RNA)
RNA: GGGAGACCGGAAUUCAGAUUGUCCUUAGACCUUAAAUCCCGUCGUAGCCACCA
DNA 1: CAATCTGAATTCCGGTCTCCC
DNA 2: TGGTGGCTACGACGGGATT
B2: AAUUACU (DNA:RNA)
RNA: B1 RNA with U25A, U26A, A27U, G28U, C31U
DNA 1: CAATCTGAATTCCGGTCTCCC
DNA 2: TGGTGGCTACGACGGGATT
B3: AGCCGAU (DNA:RNA)
RNA: GGGAGACCGGAAUUCAGAUUGUCCAGCCGAUUUAAAUCCCGUCGUAGCCACCA
DNA 1: CAATCTGAATTCCGGTCTCCC
DNA 2: TGGTGGCTACGACGGGATT
B4: GGUAGCU (DNA:RNA)
RNA: B3 RNA with A25G, C27U, C28A, A30C
DNA 1: CAATCTGAATTCCGGTCTCCC
DNA 2: TGGTGGCTACGACGGGATT
B5: GGGAGGU (DNA:RNA)
RNA: B3 RNA with A25G, C27G, C28A, A30G
DNA 1: CAATCTGAATTCCGGTCTCCC
DNA 2: TGGTGGCTACGACGGGATT
B6: CCCUGCG (DNA:RNA)
RNA: B3 RNA with A25C, G26C, C28U, A30C, U31G
DNA 1: CAATCTGAATTCCGGTCTCCC
DNA 2: TGGTGGCTACGACGGGATT
B7: GCACAGA (DNA:RNA)
RNA: B1 RNA with U25G, U26C, G28C, C30G, C31A
DNA 1: CAATCTGAATTCCGGTCTCCC
DNA 2: TGGTGGCTACGACGGGATT
B8: CACGCGU (DNA:RNA)
RNA: B3 RNA with A25C, G26A, C28G, G29C, A30G
DNA 1: CAATCTGAATTCCGGTCTCCC
DNA 2: TGGTGGCTACGACGGGATT
B9: CGAGGGC (DNA:RNA)
RNA: B1 RNA with U25C, U26G, A29G, C30G
DNA 1: CAATCTGAATTCCGGTCTCCC
DNA 2: TGGTGGCTACGACGGGATT
B10: CGCGCUC (DNA:RNA)
RNA: B3 RNA with A25C, C28G, G29C, A30U, U31C
DNA 1: CAATCTGAATTCCGGTCTCCC
DNA 2: TGGTGGCTACGACGGGATT
B11: GAGUUAA (DNA:RNA)
RNA: B3 RNA with A25G, G26A, C27G, C28U, G29U, U31A
DNA 1: CAATCTGAATTCCGGTCTCCC
DNA 2: TGGTGGCTACGACGGGATT
B12: CUACAUC (DNA:RNA)
RNA: B1 RNA with U25C, G28C, C30U
DNA 1: CAATCTGAATTCCGGTCTCCC
DNA 2: TGGTGGCTACGACGGGATT
B13: UUCGAGU (DNA:RNA)
RNA: B1 RNA with A27C, C30G, C31U
DNA 1: CAATCTGAATTCCGGTCTCCC
DNA 2: TGGTGGCTACGACGGGATT
B14: UCCUGUA (DNA:RNA)
RNA: B3 RNA with A25U, G26C, C28U, A30U, U31A
DNA 1: CAATCTGAATTCCGGTCTCCC
DNA 2: TGGTGGCTACGACGGGATT
B15: CAAUGUA (DNA:RNA)
RNA: B3 RNA with A25C, G26A, C27A, C28U, A30U, U31A
DNA 1: CAATCTGAATTCCGGTCTCCC
DNA 2: TGGTGGCTACGACGGGATT
B16: UAGUUGC (DNA:RNA)
RNA: B1 RNA with U26A, A27G, G28U, A29U, C30G
DNA 1: CAATCTGAATTCCGGTCTCCC
DNA 2: TGGTGGCTACGACGGGATT
B17: CUAUGGU (DNA:RNA)
RNA: B3 RNA with A25C, G26U, C27A, C28U, A30G
DNA 1: CAATCTGAATTCCGGTCTCCC
DNA 2: TGGTGGCTACGACGGGATT
B18: UACGAAA (DNA:RNA)
RNA: B1 RNA with U26A, A27C, C30A, C31A
DNA 1: CAATCTGAATTCCGGTCTCCC
DNA 2: TGGTGGCTACGACGGGATT
B19: ACAGUAG (DNA:RNA)
RNA: B3 RNA with G26C, C27A, C28G, G29U, U31G
DNA 1: CAATCTGAATTCCGGTCTCCC
DNA 2: TGGTGGCTACGACGGGATT
B20: CACUCAC (DNA:RNA)
RNA: B3 RNA with A25C, G26A, C28U, G29C, U31C
DNA 1: CAATCTGAATTCCGGTCTCCC
DNA 2: TGGTGGCTACGACGGGATT
B21: AGACCCA (DNA:RNA)
RNA: B3 RNA with C27A, G29C, A30C, U31A
DNA 1: CAATCTGAATTCCGGTCTCCC
DNA 2: TGGTGGCTACGACGGGATT
B22: CUCCGCG (DNA:RNA)
RNA: B3 RNA with A25C, G26U, A30C, U31G
DNA 1: CAATCTGAATTCCGGTCTCCC
DNA 2: TGGTGGCTACGACGGGATT
B23: AACUGCU (DNA:RNA)
RNA: B3 RNA with G26A, C28U, A30C
DNA 1: CAATCTGAATTCCGGTCTCCC
DNA 2: TGGTGGCTACGACGGGATT
B24: UCUGGUC (DNA:RNA)
RNA: B1 RNA with U26C, A27U, A29G, C30U
DNA 1: CAATCTGAATTCCGGTCTCCC
DNA 2: TGGTGGCTACGACGGGATT
B25: GACUAGG (DNA:RNA)
RNA: B3 RNA with A25G, G26A, C28U, G29A, A30G, U31G
DNA 1: CAATCTGAATTCCGGTCTCCC
DNA 2: TGGTGGCTACGACGGGATT
B26: CAGAAAC (DNA:RNA)
RNA: B1 RNA with U25C, U26A, A27G, G28A, C30A
DNA 1: CAATCTGAATTCCGGTCTCCC
DNA 2: TGGTGGCTACGACGGGATT
B27: CACUCUG (DNA:RNA)
RNA: B3 RNA with A25C, G26A, C28U, G29C, A30U, U31G
DNA 1: CAATCTGAATTCCGGTCTCCC
DNA 2: TGGTGGCTACGACGGGATT
B28: UUCUAAA (DNA:RNA)
RNA: B1 RNA with A27C, G28U, C30A, C31A
DNA 1: CAATCTGAATTCCGGTCTCCC
DNA 2: TGGTGGCTACGACGGGATT
B29: GAACGUG (DNA:RNA)
RNA: B3 RNA with A25G, G26A, C27A, A30U, U31G
DNA 1: CAATCTGAATTCCGGTCTCCC
DNA 2: TGGTGGCTACGACGGGATT
B30: CGGGCGC (DNA:RNA)
RNA: B1 RNA with U25C, U26G, A27G, A29C, C30G
DNA 1: CAATCTGAATTCCGGTCTCCC
DNA 2: TGGTGGCTACGACGGGATT
B31: AACCUUU (DNA:RNA)
RNA: B3 RNA with G26A, G29U, A30U
DNA 1: CAATCTGAATTCCGGTCTCCC
DNA 2: TGGTGGCTACGACGGGATT

This experiment addresses T1, RBFOX1 RRM. The experiment is described as follows: EMSA; HiTS-Eq, 1 nM pool, 10 min; buffer printed only for the single-RNA assays: 10 mM Tris pH 7.5, 150 mM NaCl, 3.4 mM EDTA, 0.001% NP-40, 30 C. The note with it: tags: His6 N-terminal (pET28a); label: 5' 32P. The gist of the method:
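Relative association constants, normalised to the cognate motif, were derived by comparing read counts of each RNA species with those of the control reaction. The RNA sequenced was the free fraction, separated by 8% native PAGE after a 10 min equilibration in 50 µL of 1 nM 5′-radiolabelled RNA (7 randomized nucleotides) with increasing concentrations of purified wild-type or mutant RbFox RRM.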
For orientation: In EMSA bound probe runs differently from free probe, usually more slowly.
B1: the binding signal was 0.00675 KA relative to UGCAUGU.
B2: the binding signal is 0.00362 KA relative to UGCAUGU.
As to B3, the binding signal is 0.00393 KA relative to UGCAUGU.
Regarding B4, the binding signal was 0.0165 KA relative to UGCAUGU.
With B5, the binding signal is 0.0199 KA relative to UGCAUGU.
Turning to B6, the binding signal was 0.0142 KA relative to UGCAUGU.
For B7, the binding signal was 0.0103 KA relative to UGCAUGU.
To B8 belongs 0.00634 KA relative to UGCAUGU; to B9, 0.00599 KA relative to UGCAUGU; to B10, 0.0135 KA relative to UGCAUGU.
As for B11, the binding signal is 0.00396 KA relative to UGCAUGU.
On to B12, for which the binding signal was 0.00247 KA relative to UGCAUGU.
Take B13: the binding signal was 0.0155 KA relative to UGCAUGU.
Turning to B14, the binding signal is 0.00677 KA relative to UGCAUGU.
On to B15, for which the binding signal is 0.00174 KA relative to UGCAUGU.
Then B16, with 0.0221 KA relative to UGCAUGU; and B17, with 0.0125 KA relative to UGCAUGU; and B18, with 0.00779 KA relative to UGCAUGU.
Then B19, with 0.00453 KA relative to UGCAUGU; and B20, with 0.00248 KA relative to UGCAUGU.
B21: the binding signal is 0.000354 KA relative to UGCAUGU.
B22: the binding signal is 0.00395 KA relative to UGCAUGU.
As to B23, the binding signal is 0.00531 KA relative to UGCAUGU.
On to B24, for which the binding signal is 0.0173 KA relative to UGCAUGU.
With B25, the binding signal was 0.0112 KA relative to UGCAUGU.
Then B26, with 0.00409 KA relative to UGCAUGU; and B27, with 0.00834 KA relative to UGCAUGU; and B28, with 0.00448 KA relative to UGCAUGU.
Regarding B29, the binding signal is 0.0225 KA relative to UGCAUGU.
B30: the binding signal is 0.0268 KA relative to UGCAUGU.
In the case of B31, the binding signal is 0.000589 KA relative to UGCAUGU.
